The target in assay [1] is T1, uPA (Homo sapiens (Human), UniProt P00749).
T1 construct: Serine protease, endogenous ligand of uPAR
Description: BLI (Octet Red96E), hsuPAR 3 µg/mL on streptavidin sensor, uPA as analyte.

In assay [2] the target is T1, uPA. Description: BLI (Octet Red96E), WAb0014 on AHC sensor, hsuPAR captured, uPA as analyte (in the presence of WAb0014).

B1: human suPAR (hsuPAR) recombinant protein (receptor)
chain: not shown
notes: it is written here as the same molecule; also called recombinant hsuPAR
With B1, the Kd in the assay with uPA [1] was 15.1 nM; in the assay with uPA [2], 7.9 nM.

These data come from US20250215104A1 (WALDEN BIOSCIENCES, published 2025).
